Source: the supplement of paper PMC4604168 (melanoma cell lines)
This is one part of the list. Single values are uncertain, as repeats are few or missing.

What follows are compounds tested on WM115 (assay: cell count relative to DMSO control; melanoma cells; higher = more viable cells). Conditions: library dose: low library concentration; 72 h.
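Further: cell number obtained by counting DAPI-stained nuclei in high-throughput microscope images with image analysis software, screen run in 1,536-well plates.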

| SMILES | cell count |
| --- | --- |
| Nc1ccn([C@@H]2O[C@H](CO)[C@@H](O)C2(F)F)c(=O)n1 [gemcitabine] + COc1ccc(COc2ccc(Cc3cnc(N)nc3N)cc2OC)cc1 [GW2580] (first compound 0.0004 µM, partner dose 1 µM) | 94.6% |
| Nc1ncn([C@H]2C[C@H](O)[C@@H](CO)O2)c(=O)n1 [decitabine] + CC(C)(C)c1cnc(CSc2cnc(NC(=O)C3CCNCC3)s2)o1 [SNS-032] (first compound 0.1 µM, partner dose 0.01 µM) | 67.9% |
| Nc1nc(F)nc2c1ncn2[C@@H]1O[C@H](CO)[C@@H](O)[C@@H]1O [fludarabine] + Nc1ncn([C@H]2C[C@H](O)[C@@H](CO)O2)c(=O)n1 [decitabine] (first compound 0.2 µM, partner dose 0.1 µM) | 82.1% |
| CC(=O)O[C@@]12CO[C@@H]1C[C@H](O)[C@@]1(C)C(=O)[C@H](O)C3=C(C)[C@@H](OC(=O)[C@H](O)[C@@H](NC(=O)OC(C)(C)C)c4ccccc4)C[C@@](O)([C@@H](OC(=O)c4ccccc4)[C@H]21)C3(C)C [Docetaxel] + O=C(O)C(=O)Nc1sc2c(c1C(=O)O)CCNC2 [TCS401] (first compound 0.0001 µM, partner dose 1.66667 µM) | 68.5% |
| Nc1ccn([C@@H]2O[C@H](CO)[C@@H](O)C2(F)F)c(=O)n1 [gemcitabine] + CCN(CC)CCCCNc1ncc2cc(-c3cc(OC)cc(OC)c3)c(NC(=O)NC(C)(C)C)nc2n1 [PD173074] (first compound 0.0004 µM, partner dose 0.1 µM) | 96.5% |
